# Source: the supplement of paper PMC8728848
# The other results are listed elsewhere or left out.
# B1: Cohesin-mDCIR (Macaca mulatta) (protein)
# chain: GLDDLDAVRIKVDTVNAKPGDTVRIPVRFSGIPSKGIANCDFVYSYDPNVLEIIEIEPGDIIVDPNPDKSFDTAVYPDRKIIVFLFAEDSGTGAYAITKDGVFATIVAKVKEGAPNGLSVIKFVEVGGFANNDLVEQKTQFFDGGVNVGDTTEPATPTTPVTTPTTTDDLDAASFQKYSQLLEKMTTKDLVHTTLECVKKNMTTEETAWSCCPKNWKPFSSNCYFISTESASWQKSEKDCARMEAHLLVINTREEQDFIFQNLQEESAYFVGLSDPEGQRHWQWVDRTPYNESSTFWHPHEPSDPDERCVVLNFRKTPKRWGWNDVHCIVHQRSVCEMMKIHLHHHHHH
# Columns and labels:
# Assay in all cases: glycan array binding signal (z-score within array); higher = stronger binding
# Conditions in all cases: glycan notation: IUPAC condensed, linker removed
# [1] = target: Neu5Ac(a2-6)Gal(b1-4)GlcNAc(b1-6)GalNAc
# Method in brief: (§1)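 Glycan array binding is given as a within-array Z-score, which can be read as non-binding when negative. The arrays, 3228 of them, came from the Consortium for Functional Glycomics database and were retained only where the protein sequence was available. Z-scores were averaged across arrays of the same protein sequence at different concentrations or buffers and across linkers.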
# [2] = target: Neu5Ac(a2-6)Gal(b1-4)GlcNAc(b1-6)[Gal(b1-3)GlcNAc(b1-3)]Gal(b1-4)Glc
# Method in brief: as §1
# [3] = target: Neu5Ac(a2-6)Gal(b1-4)GlcNAc(b1-6)[Gal(b1-3)]GalNAc
# Method in brief: as §1
# [4] = target: Neu5Ac(a2-6)Gal(b1-4)GlcNAc6S
# Method in brief: as §1
# Neu5Ac(a2-6)GalNAc = target: Neu5Ac(a2-6)GalNAc
# Method in brief: as §1
# [5] = target: Neu5Ac(a2-6)GalNAc(b1-4)GlcNAc
# Method in brief: as §1
# [6] = target: Neu5Ac(a2-6)GalNAc(b1-4)GlcNAc6S
# Method in brief: as §1
# [7] = target: Neu5Ac(a2-6)GlcNAc(b1-4)GlcNAc
# Method in brief: as §1
# [8] = target: Neu5Ac(a2-6)GlcNAc(b1-4)GlcNAc(b1-4)GlcNAc
# Method in brief: as §1
# Neu5Ac(a2-8)Neu5Ac = target: Neu5Ac(a2-8)Neu5Ac
# Method in brief: as §1
# [9] = target: Neu5Ac(a2-8)Neu5Ac(a2-3)Gal(b1-3)GalNAc(b1-4)[Neu5Ac(a2-3)]Gal(b1-4)Glc
# Method in brief: as §1
# [10] = target: Neu5Ac(a2-8)Neu5Ac(a2-3)Gal(b1-3)GalNAc(b1-4)[Neu5Ac(a2-8)Neu5Ac(a2-3)]Gal(b1-4)Glc
# Method in brief: as §1
# [11] = target: Neu5Ac(a2-8)Neu5Ac(a2-3)Gal(b1-4)Glc
# Method in brief: as §1
# [12] = target: Neu5Ac(a2-8)Neu5Ac(a2-3)Gal(b1-4)GlcNAc
# Method in brief: as §1
# [13] = target: Neu5Ac(a2-8)Neu5Ac(a2-3)[Gal(b1-3)GalNAc(b1-4)]Gal(b1-4)Glc
# Method in brief: as §1
# [14] = target: Neu5Ac(a2-8)Neu5Ac(a2-3)[GalNAc(b1-4)]Gal(b1-4)Glc
# Method in brief: as §1
# [15] = target: Neu5Ac(a2-8)Neu5Ac(a2-8)Neu5Ac
# Method in brief: as §1
# [16] = target: Neu5Ac(a2-8)Neu5Ac(a2-8)Neu5Ac(a2-3)Gal(b1-4)Glc
# Method in brief: as §1
# [17] = target: Neu5Ac(a2-8)Neu5Ac(a2-8)Neu5Ac(a2-3)[Gal(b1-3)GalNAc(b1-4)]Gal(b1-4)Glc
# Method in brief: as §1
# [18] = target: Neu5Ac(a2-8)Neu5Ac(a2-8)Neu5Ac(a2-3)[GalNAc(b1-4)]Gal(b1-4)Glc
# Method in brief: as §1
# [19] = target: Neu5Ac(a2-8)Neu5Ac(a2-8)Neu5Ac(a2-8)Neu5Ac(a2-3)[GalNAc(b1-4)]Gal(b1-4)Glc
# Method in brief: as §1
# [20] = target: Neu5Ac(a2-8)Neu5Gc(a2-3)Gal(b1-4)GlcNAc
# Method in brief: as §1
# [21] = target: Neu5Ac(b2-6)Gal(b1-4)GlcNAc
# Method in brief: as §1
# Neu5Ac(b2-6)GalNAc = target: Neu5Ac(b2-6)GalNAc
# Method in brief: as §1
# [22] = target: Neu5Ac9Ac(a2-3)Gal(b1-3)GlcNAc
# Method in brief: as §1
# [23] = target: Neu5Ac9Ac(a2-3)Gal(b1-4)GlcNAc
# Method in brief: as §1
# [24] = target: Neu5Ac9Ac(a2-6)Gal(b1-4)GlcNAc
# Method in brief: as §1
# [25] = target: Neu5Gc(a2-3)Gal(b1-3)GlcNAc
# Method in brief: as §1
# [26] = target: Neu5Gc(a2-3)Gal(b1-3)[Fuc(a1-4)]GlcNAc
# Method in brief: as §1
# Neu5Gc(a2-3)Gal(b1-4)Glc = target: Neu5Gc(a2-3)Gal(b1-4)Glc
# Method in brief: as §1
# [27] = target: Neu5Gc(a2-3)Gal(b1-4)GlcNAc
# Method in brief: as §1
# [28] = target: Neu5Gc(a2-3)Gal(b1-4)GlcNAc(b1-3)Gal(b1-4)GlcNAc(b1-2)Man(a1-3)[Neu5Gc(a2-3)Gal(b1-4)GlcNAc(b1-3)Gal(b1-4)GlcNAc(b1-2)Man(a1-6)]Man(b1-4)GlcNAc(b1-4)GlcNAc
# Method in brief: as §1
# [29] = target: Neu5Gc(a2-3)Gal(b1-4)[Fuc(a1-3)]GlcNAc
# Method in brief: as §1
# [30] = target: Neu5Gc(a2-6)Gal(b1-4)GlcNAc
# Method in brief: as §1
# Neu5Gc(a2-6)GalNAc = target: Neu5Gc(a2-6)GalNAc
# Method in brief: as §1
# [31] = target: Neu5Gc(a2-8)Neu5Ac(a2-3)Gal(b1-4)GlcNAc
# Method in brief: as §1
# [32] = target: Neu5Gc(a2-8)Neu5Gc(a2-3)Gal(b1-4)GlcNAc
# Method in brief: as §1
# [33] = target: Neu5Gc(a2-8)Neu5Gc(a2-3)Gal(b1-4)GlcNAc(b1-3)Gal(b1-4)GlcNAc
# Method in brief: as §1
binder,measurement,setting,value
B1,glycan array binding signal (z-score),[1],-0.436
same,glycan array binding signal (z-score),[2],-0.461
same,glycan array binding signal (z-score),[3],-0.399
same,glycan array binding signal (z-score),[4],0.045
same,glycan array binding signal (z-score),Neu5Ac(a2-6)GalNAc,1.4
same,glycan array binding signal (z-score),[5],-0.2
same,glycan array binding signal (z-score),[6],-0.38
same,glycan array binding signal (z-score),[7],-0.413
same,glycan array binding signal (z-score),[8],-0.455
same,glycan array binding signal (z-score),Neu5Ac(a2-8)Neu5Ac,-0.387
same,glycan array binding signal (z-score),[9],-0.375
same,glycan array binding signal (z-score),[10],-0.345
same,glycan array binding signal (z-score),[11],-0.403
same,glycan array binding signal (z-score),[12],-0.392
same,glycan array binding signal (z-score),[13],-0.324
same,glycan array binding signal (z-score),[14],0.521
same,glycan array binding signal (z-score),[15],-0.433
same,glycan array binding signal (z-score),[16],-0.453
same,glycan array binding signal (z-score),[17],-0.45
same,glycan array binding signal (z-score),[18],0.263
same,glycan array binding signal (z-score),[19],-0.118
same,glycan array binding signal (z-score),[20],-0.358
same,glycan array binding signal (z-score),[21],-0.303
same,glycan array binding signal (z-score),Neu5Ac(b2-6)GalNAc,-0.406
same,glycan array binding signal (z-score),[22],1.53
same,glycan array binding signal (z-score),[23],-0.43
same,glycan array binding signal (z-score),[24],0.175
same,glycan array binding signal (z-score),[25],-0.061
same,glycan array binding signal (z-score),[26],0.459
same,glycan array binding signal (z-score),Neu5Gc(a2-3)Gal(b1-4)Glc,-0.032
same,glycan array binding signal (z-score),[27],-0.21
same,glycan array binding signal (z-score),[28],-0.014
same,glycan array binding signal (z-score),[29],-0.264
same,glycan array binding signal (z-score),[30],-0.109
same,glycan array binding signal (z-score),Neu5Gc(a2-6)GalNAc,0.214
same,glycan array binding signal (z-score),[31],-0.271
same,glycan array binding signal (z-score),[32],-0.453
same,glycan array binding signal (z-score),[33],-0.29
